Measured values as given in PubChem BioAssay AID2060614 (Molecular Pharmacology Branch, DTP, NCI, 2025).
A number of entries come with more than one value. This list holds those alone. The source may hold further records. The values listed for one entry are repeated measurements (runs, samples, wells, individuals or studies). Additions like (4×) give the number of equal values in this list.

System: 598228-144-R-J1-PDC complex spheroids, viability
Assay: Anticancer human tumor 598228-144-R-J1-PDC patient-derived serous endometrial adenocarcinoma cell line growth inhibition [CLK]
Settings: stronger effect = lower value
Excerpt: A high-throughput screen of multi-cell type tumor spheroids was designed to identify active combinations of […] and targeted small molecules. Complex spheroids include a stromal component modeled by human endothelial cells (HUVEC) and fibroblasts modeled by human mesenchymal stem cells (MSCs). The concentration ranges selected for each drug and investigational agent were based upon clinically achievable concentrations if the clinical Cmax of the agent was known.
Compounds. The drugs and investigational agents: cirtuvivint (SM08502; NSC835563), CC-671 (NSC850746), vemurafenib (NSC761431), tapotoclax (NSC804041), sotorasib (NSC818433), adagrasib (NSC831453), MRTX-1133 (NSC836407), BAY2416964 (NSC825713), copanlisib (NSC816437), inavolisib (NSC800729), abemaciclib (NSC768073), osimertinib (NSC779217), entinostat (NSC756642), eltanexor (KPT-8602, NSC794443), venetoclax (NSC766270), ceralasertib (NSC777638), bortezomib (NSC756655), olaparib (NSC753686), talazoparib (NSC767125), alisertib (NSC759677), peposertib (NSC802822), gemcitabine (NSC613327), 5-fluorouracil (NSC19893), SN-38 (NSC673596), oxaliplatin (NSC266046), paclitaxel (NSC125973), and doxorubicin (NSC123127), were obtained from the National Cancer Institute (NCI) Developmental Therapeutics Program Chemical Repository. The FDA-approved anticancer drug set is available from the Developmental Therapeutics Program at https://dtp.cancer.gov/organization/dscb/obtaining/available plates.htm. […] The stock solutions were prepared in dimethyl sulfoxide (DMSO, Sigma-Aldrich, St. Louis, MO, cat. D2650), except for the platinum complexes which were prepared in saline (Quality Biological, Gaithersburg, MD, cat. 114-055-101), at 800-fold the tested concentration and stored at -70 degrees C prior to their use. All drugs and investigational agents were tested over a range starting from a high concentration at or near the clinical Cmax and decreasing in half-log increments. If the clinical Cmax for an agent had not been determined, the highest concentration tested was 10 microM.
Cell Culture. All cells were maintained in an incubator at 37 degrees C and 5% CO2 with 95% humidity. The PDC lines were cultured according to standard operating procedures established by the NCI PDMR. Briefly, all PDCs were thawed and cultured in Matrigel-coated flasks prepared with a working solution of 1X Ham's F-12 nutrient mix, without supplementation (Invitrogen, Waltham, MA, cat. 11765054), 100 U/mL penicillin-streptomycin (Invitrogen, cat. 15140122), and 2.5% Matrigel (Corning Inc., Corning, NY, cat. 354248) for the first three passages. […]
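Also: spheroids exposed to compounds for seven days before readout; 100% = DMSO vehicle control wells.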

Row | Compound | viability, T/C (compound alone 0.0316 µM) | viability, T/C (compound alone 0.1 µM) | viability, T/C (compound alone 0.316 µM)
1 | CN1CCN(c2cc(C(=O)Nc3cc4cc(-c5cnn(C)c5)ccc4cn3)ccn2)CC1 | 127 (2×), 106, 101, 118, 126, 121, 120 (2×), 112, 129, 117% | 141, 119 (2×), 105, 130, 110, 111 (2×), 112, 121, 127, 123% | 
2 | CNC(=O)c1ccc(Nc2nc(OC3CCCC3)c3c(-c4ccc5nc(C)oc5c4)c[nH]c3n2)c(OC)c1 |  | 93.3, 87.2, 99.1, 124 (2×), 97.9, 101, 97, 114, 102, 92.3, 99.8% | 111, 110, 107 (2×), 106, 103 (2×), 101 (2×), 94, 102, 120%
